Experimental data reported in PMC4336329 (PLoS ONE, 2015).
Hit rate of the full screen: of about 310,000 compounds, about 2,200 (0.71%) showed an effect of 50% or more. The effect is printed as a negative number. This is one part of the list.

Each compound was assayed against human ether-à-go-go-related gene (hERG) potassium channel (human, UniProt Q12809) (assay: primary screen, population patch clamp on CHO cells stably expressing hERG).
Sequence of human ether-à-go-go-related gene (hERG) potassium channel (Q12809 whole entry, looked up): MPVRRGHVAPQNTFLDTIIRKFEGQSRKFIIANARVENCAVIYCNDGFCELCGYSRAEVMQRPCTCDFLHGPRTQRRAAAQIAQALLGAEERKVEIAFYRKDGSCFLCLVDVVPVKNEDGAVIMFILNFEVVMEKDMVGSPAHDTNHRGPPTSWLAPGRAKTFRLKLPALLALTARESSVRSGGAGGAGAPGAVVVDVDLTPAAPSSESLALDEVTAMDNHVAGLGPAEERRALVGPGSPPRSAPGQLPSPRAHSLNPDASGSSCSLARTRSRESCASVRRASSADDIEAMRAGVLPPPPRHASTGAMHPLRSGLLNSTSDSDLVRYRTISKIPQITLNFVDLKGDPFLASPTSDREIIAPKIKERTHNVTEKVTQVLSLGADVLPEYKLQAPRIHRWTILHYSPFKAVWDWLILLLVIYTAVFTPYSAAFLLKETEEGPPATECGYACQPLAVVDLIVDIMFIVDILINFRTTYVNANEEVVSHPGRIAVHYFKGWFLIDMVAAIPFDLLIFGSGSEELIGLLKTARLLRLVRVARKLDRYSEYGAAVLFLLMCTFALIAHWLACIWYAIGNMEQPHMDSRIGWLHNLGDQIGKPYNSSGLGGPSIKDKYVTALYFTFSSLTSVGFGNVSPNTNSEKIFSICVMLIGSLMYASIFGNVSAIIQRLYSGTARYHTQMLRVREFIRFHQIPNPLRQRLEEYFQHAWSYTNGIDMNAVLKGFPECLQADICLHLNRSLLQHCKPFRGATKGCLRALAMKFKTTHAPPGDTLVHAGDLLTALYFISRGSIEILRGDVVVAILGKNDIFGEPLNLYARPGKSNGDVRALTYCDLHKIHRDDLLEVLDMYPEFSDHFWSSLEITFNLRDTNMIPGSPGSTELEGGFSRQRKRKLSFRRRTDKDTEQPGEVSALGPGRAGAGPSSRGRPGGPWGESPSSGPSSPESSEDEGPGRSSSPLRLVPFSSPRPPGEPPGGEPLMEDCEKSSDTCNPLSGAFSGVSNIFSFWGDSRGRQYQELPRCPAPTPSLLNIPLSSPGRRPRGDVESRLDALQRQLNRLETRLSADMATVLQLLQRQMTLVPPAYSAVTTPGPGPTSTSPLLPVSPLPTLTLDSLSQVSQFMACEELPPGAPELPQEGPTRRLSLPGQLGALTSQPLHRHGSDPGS

| SMILES | hERG current change (%, negative = inhibition) at 1uM [%] |
| --- | --- |
| CCCCN=C1CC(C)(C)CC(=O)/C1=C(/O)CCCN1C(=O)c2ccccc2C1=O | -7.29 |
| Cc1ccc(Nc2cc(C)nc(-c3ccccc3O)n2)cc1 | 8.83 |
| CC(C)(C)C(=O)N1CCN(S(=O)(=O)c2ccc3c(c2)OCCCO3)CC1 | 2.12 |
| COC(=O)c1ccc(NC(=O)C(C)N2C(=O)c3ccccc3C2=O)cc1 (centres unmarked) | 8.14 |
| CC(=O)c1c(O)cc(C)n(Nc2nc(C)cc(C)n2)c1=O | 4.15 |
| COC(=O)[C@H]1[C@H]2C[C@H]3c4[nH]c5ccccc5c4CCN3C[C@H]2CC[C@@H]1O.Cl | 13.2 |
| CC(=O)Nc1cc(C)nn1-c1nc2ccccc2s1 | 8.3 |
| CN(CCCNC(=O)c1nn(C)c2c1CS(=O)(=O)c1ccccc1-2)Cc1ccccc1 | -0.679 |
| COc1ccc(-c2sc3ccccc3c2C#CC2(O)CCCCC2)cc1 | 12.7 |
| COc1ccc(C2=NOC3(CC(=O)N(c4ccc(F)cc4)C3=O)C2)c(OC)c1 (centres unmarked) | 11.3 |
| Cc1cccc2c1ncc1c(=O)n(-c3ccccc3)[nH]c12 | 10.4 |
| CCOc1ccc(NC(=O)COc2nsnc2N2CCOCC2)cc1 | -12.7 |
| CCn1cc(Cl)c(C(=O)N2N=C(c3ccc4ccccc4c3)CC2c2ccccc2O)n1 (centres unmarked) | 6.54 |
| CNC(=O)NC(=O)C(OC(=O)Cc1cccc(C(F)(F)F)c1)c1ccccc1 (centres unmarked) | 12.5 |
| COc1nccc(C(F)(F)F)c1C(=O)NC(=O)Nc1c(C)cccc1C | 6.68 |
| COc1ccc(C(=O)NCCNc2ccc([N+](=O)[O-])cn2)cc1 | 4.69 |
| Cc1ccc(Nc2ncnc3c2oc2ccccc23)cc1 | 5.26 |
| CCCn1c(N2CCN(C(=O)Nc3ccc(Cl)cc3)CC2)nc2ccccc21 | 7.31 |
| COc1ccc(/C=N/NC(=O)c2ccncc2)cc1CN1CCOCC1 | 6.59 |
| CCC(=O)Nc1ccc(N2CCOCC2)c(S(=O)(=O)Nc2ccc(Cl)cc2)c1 | 11.9 |
| CCOC(=O)C(=O)NNc1ccc(C)cc1 | 6.6 |
| O=C(/C=C/c1ccco1)Nc1sc2c(c1C(=O)O)CCC2 | 2.18 |

| SMILES | hERG current change (%, negative = inhibition) at 1uM [%] |
| --- | --- |
| COc1ccc(CC(=O)NCc2nnc(SCC(=O)Nc3nccs3)n2C)cc1 | 11.5 |
| CCOC(=O)N1CCC(NC(=O)C(C)n2c3ccccc3c3cnn(C)c(=O)c32)CC1 (centres unmarked) | 7.12 |
| Cc1nnc(NC(=O)CSc2nnc3c(n2)[nH]c2ccc(Br)cc23)s1 | 18.2 |
| Cc1cc(NC(=O)C2CC2)ncc1NC(=O)C12CC3CC(CC(C3)C1)C2 | 6.45 |
| O=C(COc1ccc(S(=O)(=O)N2CCOCC2)cc1Cl)N1CCCC1 | 18.8 |
| Cc1cc2oc(=O)cc(CN3CCCCC3C)c2cc1C (centres unmarked) | 1.4 |
| CC(/C=C/c1cccs1)=C\C(=O)O | 24.4 |
| CC1=NN(C(C#N)c2cccc([N+](=O)[O-])c2)C(C)(C)C1 (centres unmarked) | -6.34 |
| CC(C)C[C@H](NC(=O)NCc1ccccc1Cl)C(=O)O | 5.75 |
| CN1CCN(c2ccccc2NC(=O)c2sc3ccccc3c2Cl)CC1 | 8.53 |
| CCOC(=O)CSc1nnc(-c2ccccc2NC(=O)c2ccccc2)o1 | 8.72 |
| COc1cc(/C=N/S(=O)(=O)c2ccccc2)cc(OC)c1O | 10.2 |
| COc1ccc(CCNC(=O)c2ccnc(C(C)(C)C)c2)cc1OC | 5.31 |
| CCC(=O)N1c2ccc(S(=O)(=O)N3CCCC3)cc2CC1C (centres unmarked) | 14.2 |
| CC1=NN(c2ccc([N+](=O)[O-])cc2)C(c2ccccc2)C1 (centres unmarked) | 12.5 |
| CCc1ccc(/C=C\C(=O)N2CCc3ccccc3C2)cc1 | 16.3 |
| O=C(Oc1cc(=O)oc2ccccc12)c1cccnc1Cl | 13.6 |
| COc1cccc(-c2nc(CS(=O)(=O)CC(=O)Nc3ccccc3Br)c(C)o2)c1 | 8.87 |
| NC(=O)Cn1cnc(-c2ccccc2)c1 | 11.1 |
| CN(CCNC(=O)C1(O)c2ccccc2NC(=O)N1c1ccccc1)Cc1ccccc1 (centres unmarked) | 0.189 |
| N#Cc1ccc(N2CCc3ccccc3C2)c([N+](=O)[O-])c1 | 4.22 |
| O=C(c1cc(-c2ccccc2)nc2ccccc12)N1CCC2(CC1)OCCO2 | 5.68 |
